The IC50 comes from the fitted curve, where viability falls to half of the control; a limit (>, <) means that the fit lies beyond the doses tested. AUC is the area under the same curve over the 256-fold range up to the top dose, as a fraction; the more sensitive the line, the further below 1. For some of these results: Where the top dose is marked as inferred, it is not printed in the source and was worked back from the curve model. For some of these results: Where an entry number is given, a second screen of the drug exists; the two often differ.
Experiments:
Test in all cases: Viability of human cancer cell lines after 72 h of drug (GDSC screen)
Docetaxel = compound: CC(=O)O[C@@]12CO[C@@H]1C[C@H](O)[C@@]1(C)C(=O)[C@H](O)C3=C(C)[C@@H](OC(=O)[C@H](O)[C@@H](NC(=O)OC(C)(C)C)c4ccccc4)C[C@@](O)([C@@H](OC(=O)c4ccccc4)[C@H]21)C3(C)C [Docetaxel]; settings: top dose 0.0125 µM
Procedure: (§1)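 Human cancer cell lines in 384-well plates, medium with 10% serum, drug for 72 h over a 256-fold dose range (nine 2-fold or five 4-fold steps up to the top dose). Adherent lines were fixed and stained with the nucleic acid dye Syto60, suspension lines read with resazurin; signal relative to control wells, capped at 0 and 100%. One two-parameter sigmoid per drug and line, fitted in a mixed model over all curves with the slope shared within a line.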

AMG-706 = compound: CC1(C)CNc2cc(NC(=O)c3cccnc3NCc3ccncc3)ccc21 [AMG-706]; settings: top dose 2 µM; top dose inferred
Procedure: as §1

JNK Inhibitor VIII = compound: CCOc1nc(NC(=O)Cc2cc(OC)ccc2OC)cc(N)c1C#N [JNK Inhibitor VIII]; settings: top dose 10 µM; top dose inferred
Procedure: as §1

NSC-207895 = compound: CN1CCN(c2ccc([N+](=O)[O-])c3no[n+]([O-])c23)CC1 [NSC-207895]; settings: top dose 20 µM; top dose inferred
Procedure: as §1

FTI-277 = compound: COC(=O)[C@H](CCSC)NC(=O)c1ccc(NC[C@@H](N)CS)cc1-c1ccccc1 [FTI-277]; settings: top dose 1.024 µM; top dose inferred
Procedure: as §1

YM155 = compound: COCC[n+]1c2c(n(Cc3cnccn3)c1C)C(=O)c1ccccc1C2=O [YM155]; settings: top dose 5.12 µM
Procedure: as §1

OSI-906 = compound: C[C@]1(O)C[C@@H](c2nc(-c3ccc4ccc(-c5ccccc5)nc4c3)c3c(N)nccn32)C1 [OSI-906]; settings: top dose 2.56 µM; top dose inferred
Procedure: as §1

SB-715992 = compound: Cc1ccc(C(=O)N(CCCN)[C@@H](c2nc3cc(Cl)ccc3c(=O)n2Cc2ccccc2)C(C)C)cc1 [SB-715992]; settings: top dose 0.128 µM; top dose inferred
Procedure: as §1

JQ1 = compound: Cc1sc2c(c1C)C(c1ccc(Cl)cc1)=N[C@@H](CC(=O)OC(C)(C)C)c1nnc(C)n1-2 [JQ1]
Procedure: as §1

Belinostat = compound: O=C(/C=C/c1cccc(S(=O)(=O)Nc2ccccc2)c1)NO [Belinostat]; settings: top dose 20 µM; top dose inferred
Procedure: as §1

JNJ-26854165 = compound: c1ccc2c(CCNc3ccc(Nc4ccncc4)cc3)c[nH]c2c1 [JNJ-26854165]; settings: top dose 10 µM
Procedure: as §1

[1] = top dose 1 µM, screen: GDSC drug entry 1218, top dose inferred
[2] = top dose 2.56 µM, screen: GDSC drug entry 163

| Cell Line | AUC (Docetaxel) | IC50 (Docetaxel) [nM] | AUC (AMG-706) | IC50 (AMG-706) [nM] | AUC (JNK Inhibitor VIII) | IC50 (JNK Inhibitor VIII) [µM] | AUC (NSC-207895) | IC50 (NSC-207895) [µM] | AUC (FTI-277) | IC50 (FTI-277) [nM] | AUC (YM155) | IC50 (YM155) [nM] | AUC (OSI-906) | IC50 (OSI-906) [nM] | AUC (SB-715992) | IC50 (SB-715992) [nM] | AUC (JQ1; [1]) | IC50 (JQ1; [1]) [nM] | AUC (JQ1; [2]) | IC50 (JQ1; [2]) [nM] | AUC (Belinostat) | IC50 (Belinostat) [nM] | AUC (JNJ-26854165) | IC50 (JNJ-26854165) [µM] |
| --- | --- | --- | --- | --- | --- | --- | --- | --- | --- | --- | --- | --- | --- | --- | --- | --- | --- | --- | --- | --- | --- | --- | --- | --- |
| NCI-H1755 (lung adenocarcinoma, adherent) | 0.801 | 7.24 | 0.981 | > 2000 | 0.974 | > 10 | 0.984 | > 20 | 0.981 | > 1020 | 0.372 | 134 | 0.949 | > 2560 | 0.984 | > 128 | 0.977 | > 1000 | 0.689 | 594 | 0.209 | 148 | 0.825 | 7.33 |
| CCK-81 (large intestine, adherent) | 0.988 | > 12.5 | 0.99 | > 2000 | 0.99 | > 10 | 0.909 | > 20 | 0.99 | > 1020 | 0.902 | > 5120 | 0.848 | 1730 | 0.598 | 14.6 | 0.944 | > 1000 | 0.635 | 368 | 0.337 | 453 | 0.862 | 7.73 |
| JHH-1 (liver, adherent) | 0.803 | 6.84 | 0.983 | > 2000 | 0.984 | > 10 | 0.8 | 10.7 | 0.984 | > 1020 | 0.035 | < 20 | 0.985 | > 2560 | 0.958 | > 128 | 0.977 | > 1000 | 0.558 | 233 | 0.095 | < 78.1 | 0.88 | > 10 |
| NCI-H2452 (mesothelioma, adherent) | 0.669 | 2.54 | 0.984 | > 2000 | 0.984 | > 10 | 0.971 | > 20 | 0.961 | > 1020 | 0.239 | 47.5 | 0.975 | > 2560 | 0.983 | > 128 | 0.982 | > 1000 | 0.9 | > 2560 | 0.945 | > 20000 | 0.809 | 6.46 |
| LK-2 (lung squamous cell carcinoma, adherent) | 0.639 | 1.84 | 0.962 | > 2000 | 0.989 | > 10 | 0.962 | > 20 | 0.981 | > 1020 | 0.033 | < 20 | 0.945 | > 2560 | 0.733 | 35.2 | 0.979 | > 1000 | 0.941 | > 2560 | 0.313 | 388 | 0.935 | > 10 |
| JIMT-1 (breast, adherent) | 0.529 | 0.941 | 0.977 | > 2000 | 0.962 | > 10 | 0.962 | > 20 | 0.94 | > 1020 | 0.118 | < 20 | 0.977 | > 2560 | 0.841 | 99.6 | 0.967 | > 1000 | 0.798 | 1320 | 0.638 | 3100 | 0.866 | > 10 |
| CP50-MEL-B (melanoma, adherent) | 0.77 | 4.7 | 0.971 | > 2000 | 0.974 | > 10 | 0.867 | 17.6 | 0.988 | > 1020 | 0.034 | < 20 | 0.981 | > 2560 | 0.958 | > 128 | 0.984 | > 1000 | 0.818 | 1420 | 0.471 | 1040 | 0.859 | 8.17 |
| SCC-9 (head and neck, adherent) | 0.645 | 2.21 | 0.977 | > 2000 | 0.979 | > 10 | 0.866 | > 20 | 0.941 | > 1020 | 0.037 | < 20 | 0.971 | > 2560 | 0.57 | 13.1 | 0.895 | > 1000 | 0.433 | 99.6 | 0.398 | 607 | 0.909 | > 10 |
| CS1 (bone, adherent) | 0.692 | 2.9 | 0.955 | > 2000 | 0.959 | > 10 | 0.87 | > 20 | 0.974 | > 1020 | 0.047 | < 20 | 0.909 | > 2560 | 0.709 | 33.6 | 0.97 | > 1000 | 0.818 | 1670 | 0.514 | 1370 | 0.759 | 3.88 |
| NCI-H3122 (lung adenocarcinoma, adherent) | 0.664 | 2.27 | 0.986 | > 2000 | 0.985 | > 10 | 0.97 | > 20 | 0.85 | 810 | 0.056 | < 20 | 0.957 | > 2560 | 0.63 | 18.5 |  |  | 0.731 | 746 | 0.365 | 524 | 0.925 | > 10 |
| BICR78 (head and neck, adherent) | 0.501 | 0.786 | 0.921 | > 2000 | 0.94 | > 10 | 0.949 | > 20 | 0.916 | > 1020 | 0.046 | < 20 | 0.98 | > 2560 | 0.914 | > 128 | 0.971 | > 1000 | 0.613 | 344 | 0.377 | 542 | 0.844 | 8.83 |

Source: the supplement of paper PMC4967469
